About 120 (0.25%) of roughly 48,000 compounds were called active. About 4% were inconclusive and are not listed. Calls come from the whole dose curve; as a rule, active = well fitted activation curve with a large enough effect; inconclusive = small, poorly fitted or top-dose-only effect, or another doubt; inactive = no such curve, though single readings can be large or run the other way. This is one part of the list.
Test: Primary qHTS for Identification of Small Molecule Activators of Huntingtin-Antisense Promoter Activity; note: nearly all actives have a fitted effect of over 55% in size
Details: HEK293 HTT-AS promoter firefly luciferase reporter, 24 h; series mostly up to 57.5 µM; activity change, positive = activation: at the top concentration
Outline: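 HEK293 Fluc reporter, 2,500 cells/well, 24 h pre-culture; cpds up to 57.5 uM final, 24 h 37 degrees C; Dual-Glo, 10 min RT; normalized vehicle = 0%, zero RLU = -100%.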

Activity change, positive = activation, inactive:
Cc1ccc2c(=O)cc(C(=O)Nc3cccc(C(F)(F)F)c3)oc2c1C 5.21% [at 11.5 µM, percent change from vehicle, -100% = no light]
Cc1cccn2c(=O)c3cc(C(=O)NC(C)c4ccccc4)c(=N)n(CCCO)c3nc12 (stereo not drawn) 13.5%
Cc1ccc(NC(=O)CSc2nnc3scc(-c4ccccc4)n23)cc1 -14.5%
O=C(Cn1nnc(-c2ccccc2Cl)n1)Nc1ccc(Br)cc1 4.64%
COC(=O)c1ccc(OCC2c3cc(OC)c(OC)cc3CCN2C(=O)c2ccc(F)cc2)cc1 (stereo not drawn) -21.4%
Cc1ccc2c(=O)cc(C(=O)Nc3sc4c(c3C(=O)NCc3cccnc3)CCCC4)oc2c1C 0.457%
Fc1ccc(-c2noc3ncnc(NCCCN4CCN(c5ccccc5)CC4)c23)cc1 -24.2%
O=c1oc2c(CN3CCN(CCO)CC3)c(O)ccc2cc1-c1ccccc1 -9.83%
COc1cccc(NC(=O)CC2NCCNC2=O)c1 (stereo not drawn) -1.17%
COc1ccc(C(=O)NCC(c2ccc(N(C)C)cc2)N2CCc3ccccc32)c(OC)c1 (stereo not drawn) -21.3%
COc1ccc(S(=O)(=O)NCC(c2ccco2)N2CCOCC2)cc1OC (stereo not drawn) -16.4%
Cc1ccc(NC(=O)CCc2c(C)nc3cc(-c4ccccc4)nn3c2C)cc1F -70.9%
COc1ccc(-c2nc3c(C#N)c[nH]n3c2NC2CCCC2)c(OC)c1 0%
Cc1ccc(NC(=O)c2sc3nc4c(cc3c2N)CN(Cc2ccccc2)CC4)cc1 2.5%
CCN1C(=O)c2ccccc2Sc2ccc(NC(=O)c3ccc(Cl)cc3)cc21 -5.09%
Cc1oc2ncn(C)c(=O)c2c1C(=O)N1CCN(c2ccccc2F)CC1 -11.6%
CCc1nn(Cc2ccc(Cl)cc2)c(=O)c2cc3cc(C)ccc3n12 -6.8%
Cc1cccc(NS(=O)(=O)c2ccc3c(c2)C(C)(C)C(=O)N3C)c1 -12.2%
CCOc1ccc(CN2CCc3nc(Nc4ccc(OC)cc4OC)ncc3C2)cc1 -2.85%
O=C(NCCCN1CCN(c2ccc(F)cc2)CC1)c1ccc2nc(Cc3ccccc3)oc2c1 -41.6%
COc1ccc2c(c1)c1c(c(=O)n(CCc3ccccc3)c(=O)n1Cc1ccc(F)cc1)n2C -19%
Cc1ccccc1Cn1c(CN2CCC(C(=O)NCCc3ccccc3)CC2)cc2ccccc21 -21.1%
CCN(CC)CCCNC(=O)c1nn(C)c2c1CS(=O)(=O)c1ccccc1-2 -8.92%
CCC(=O)Nc1cccc(C(=O)OCc2cc(=O)n3nc(CC)sc3n2)c1 11.7%
COc1ccc2c(c1)c1c(c(=O)n(-c3ccc(F)c(Cl)c3)c(=O)n1Cc1ccccc1C)n2C -15.1%
COc1ccc(NC(=O)c2c(-c3ccc(C)cc3)nnc3ccccc23)c(OC)c1 -10.5%
CCN(CC)c1nc2ccccc2nc1C(=O)Nc1cccc(C(C)=O)c1 -25.4%
O=[N+]([O-])c1ccc(/C=N\O)o1 -4.66%
S=C(NCc1ccc2c(c1)OCO2)N1CCN(c2ncnc3c2oc2ccccc23)CC1 -16.3% [at 116 µM, percent change from vehicle, -100% = no light]
CCSC1=NC2(CCN(C(=O)NC3CCCCC3)CC2)N=C1c1ccc(Cl)cc1 -4.15% [at 11.5 µM, percent change from vehicle, -100% = no light]
COc1ccc(Cl)cc1-n1nnc(-c2nsc(NC(=O)c3ccccc3Cl)n2)c1C -5.03%
CCCSc1nc2sc3c(c2c(=O)n1Cc1ccccc1)CC(C)(CC)OC3 (stereo not drawn) -12.7%
Cc1ccc(NC(=O)C2CCC(CNS(=O)(=O)c3csc(C(N)=O)c3)CC2)cc1Cl (stereo not drawn) -6.54%
COc1ccc(C2(CNC(=O)C(=O)Nc3ccc(F)cc3)CCCC2)cc1OC 1.95%
CCN(CC)CCCCNc1nc2cc(Cl)c(Cl)cc2nc1-c1ccc(-c2cccs2)s1 -24.4%
CCc1ccccc1NC(=O)C(=O)NCC(c1cccnc1)N1CCN(c2ccccc2F)CC1 (stereo not drawn) -35.1%
CCOC(=O)c1c(S(=O)(=O)NCC(=O)Nc2cc(C)ccc2C)c(C)n(C)c1C -12.3%
CCc1nn(Cc2cc(C)ccc2C)c(=O)c2cc3cc(C)ccc3n12 -15.2%
Cc1ccc(NS(=O)(=O)c2ccc3c(c2)CCCN3C(=O)C2CCC2)c(C)c1 -12.6%
CCc1nn2c(=O)cc(COC(=O)c3ccco3)nc2s1 6.57%
CCOC(=O)C1CCN(S(=O)(=O)c2csc(C(N)=O)c2)CC1 -32.6%
COc1ccc(N2CCN(C(=O)c3cc4c(s3)-c3ccccc3OC4)CC2)cc1 -16.5%
COc1ccc(N2CC(NC(=O)c3ccc(Br)o3)CC2=O)cc1 (stereo not drawn) -15.5%
CCOC(=O)N1CCc2c(sc(NCc3cc(OC)c(OC)cc3OC)c2C(=O)Nc2ccc(OCC)cc2)C1 -23.2%
CS(=O)(=O)N(Cc1ccco1)CC(O)Cn1c2ccccc2c2ccccc21 (stereo not drawn) -25.2%
CCc1ccc(-n2c(=O)c3cccnc3n2CC(=O)Nc2cc(F)ccc2F)cc1 -18.4%
CC(=O)Oc1cc2c(s1)CCN(C(C(=O)C1CC1)c1ccccc1F)C2 (stereo not drawn) -74.7%
CCN(CC)C(=O)Cn1cc(SCC(=O)Nc2ccccc2C)c2ccccc21 -14.5%
CCN1CCN(c2ncc3c(n2)CCN(Cc2ccc(OC(C)C)cc2)C3)CC1 -13.6%
Cc1cccc(-c2nc(SCCCOc3ccc(Cl)c(C)c3)n3[nH]c(=O)cc3n2)c1 -7.38%
CCOC(=O)c1cccc(NC(=O)NCc2ccc3c(c2)CCN3C(=O)c2ccccc2)c1 -44.5%
CC(O)CCCCn1c(=O)c2c(ncn2C)n(C)c1=O (stereo not drawn) -2.05%
CCOC(=O)c1ccc(-c2ccc(/C=C(\C#N)C(=O)Nc3ccc(OCC)cc3)o2)cc1 10.9%
Cc1ccc(C)n1-c1nnc(N2CCCC(C(=O)NCc3cccc(Cl)c3)C2)s1 (stereo not drawn) -10.1%
CCc1ccc(-n2c(Cc3ccccc3)nnc2SCc2nc(-c3cccs3)no2)cc1 -37.7%
CC1=C(C(=O)NCc2ccc(Cl)cc2)C2(CCCCC2)OC1=O -8.61%
Cc1ccc(/C=C/c2onc(C)c2S(=O)(=O)N2CCC(C(=O)NCC(C)c3ccccc3)CC2)cc1 (stereo not drawn) -11.1%
CCn1cc(S(=O)(=O)c2cccc(Cl)c2)c(=O)c2cc(F)c(N3CCN(c4ccccc4)CC3)cc21 -0.638%
CC(C)C(=O)Nc1ccc([N+](=O)[O-])c(C(F)(F)F)c1
CCCCCn1c(-c2ccc(OC)c(OC)c2)nc2ccccc21 -0.468%
Cc1ccc(Cl)cc1N1CCN(S(=O)(=O)c2ccc3c(c2)CCCN3C(=O)C2CCC2)CC1 -41.9%
O=C(NCCc1ccccc1)c1cc(Sc2cccc(Cl)c2)nc2ccccc12 -13%
COc1cc(OC)c(NC(=O)Cn2c(=O)oc3cc(S(=O)(=O)N4CCCC4)ccc32)cc1Cl -37.6%
Cc1ccc(CN2C(=O)c3oc4ccc(C)cc4c(=O)c3C2c2ccc(O)cc2)cc1 (stereo not drawn) -10.1%
COc1ccc(NS(=O)(=O)c2ccc3[nH]c4c(c3c2)CCCC4)cc1Cl -35.2%
O=C(Cn1ncc2c([nH]c3ccccc32)c1=O)NCC1CCN(Cc2ccc(F)cc2)CC1 -12.6%
Cc1ccccc1C(=O)Nc1nc(-c2nnn(-c3ccc(C(C)C)cc3)c2C)ns1 -32.1%
CCOc1ccccc1CNC(=O)C1CCN(S(=O)(=O)c2ccc3c(ccn3C)c2)CC1 -13.1%
Cc1cc(Cl)ccc1NC(=O)CN(c1ccccc1Br)S(C)(=O)=O -5.75%
CCOc1ccc(C(=O)NCCS(=O)(=O)N2CCN(c3ccccc3F)CC2)cc1OCC -16.1%
COc1ccc(CN2CCN(c3ncnc4sc5c(c34)CC(C)CC5)CC2)cc1F (stereo not drawn) 14.3% [at 11.5 µM, percent change from vehicle, -100% = no light]
COc1ccccc1N1CCN(CCCNC(=O)c2cnn(-c3ccccc3)c2C2CCN(C(=O)OC(C)(C)C)CC2)CC1 -20.8%
Cc1ccccc1C(=O)OCc1cc(=O)n2nc(-c3cccs3)sc2n1 0.811%
CC(=O)O[C@]1(C(C)=O)CC[C@@H]2[C@@H]3C[C@H](C)C4=CC(=O)CC[C@]4(C)[C@H]3CC[C@@]21C -21%
CC1=C(C(=O)Nc2ccccc2)C(c2cccs2)n2nc(SCc3ccccc3F)nc2N1 (stereo not drawn) -18.3%
Cc1ccc(C)c(NC(=O)c2cc(S(=O)(=O)N3CCCCCC3)ccc2F)c1 -11.6%
CN(C)CCN(Cc1ccco1)C(=O)c1oc2ccccc2c1NC(=O)c1ccccc1 -18.9%
Cc1ccc(OCC(=O)N(Cc2ccco2)Cc2ccc(C)o2)cc1 -24.3%
COc1ccc(-c2cc(C(F)(F)F)n3nc(C(=O)Nc4ccccc4SC)cc3n2)cc1OC -11.5%
CCC(C)NC(=O)c1nn(-c2ccc(C)cc2)c(=O)n(C)c1=O (stereo not drawn) -6.5%
COc1cc2c(=O)n(CCC(=O)NCC3CCCO3)c(=O)n(CC(=O)Nc3ccc(C)c(C)c3)c2cc1OC (stereo not drawn) -7.36%
COc1cccc(CCNC(=O)c2c(O)nc3ccccn3c2=O)c1 23%
CC(C)c1cccc(OCCn2c(-c3ccc(Cl)cc3)nc3ccccc3c2=O)c1 -12.2%
CCOc1ccccc1NC(=O)c1cnn2c(C(F)F)cc(-c3ccccc3)nc12 -42.7%
COc1ccc(NC(=O)CSc2nc3ccccc3n2Cc2cccc(OC)c2)cc1 -23.9%
CCOc1ccc(NC(=O)C2CCN(c3nnc(-n4c(C)ccc4C)s3)CC2)cc1 -5.03%
Cc1nc(-c2cccnc2)sc1CCNS(=O)(=O)c1ccc(F)cc1 -13.3%
COCCNC(=O)c1cccc(-n2c(C)nc3cccnc32)c1 -0.895%
COc1ccc2c(CNCCc3ccco3)c(C(=O)O)n(Cc3ccccc3)c2c1 -11.9%
COc1ccc(-c2cc(C(F)(F)F)nc(SCC(=O)NCCc3ccccc3)n2)cc1OC -2.21%
CCc1sc(Nc2cccc(C)c2C)nc1-c1cc2cccc(OC)c2oc1=O -9.65%
COc1cc(OC)cc(-n2c(=O)c3sccc3n(Cc3c(C)cc(C)cc3C)c2=O)c1 -12.2%
Cc1ccc(NC(=O)c2cc(S(=O)(=O)N3CCc4ccccc43)ccc2F)cc1Cl -24.3%

From PubChem BioAssay AID1508624 (National Center for Advancing Translational Sciences (NCATS), 2021)
